Among all 43,000 compounds or so, about 200 (0.47%) were called active. Roughly 12% stayed inconclusive and do not appear here. Calls come from the whole dose curve; as a rule, active = well fitted cell-killing curve with a large enough effect; inconclusive = small, poorly fitted or top-dose-only effect, or effect the other way; inactive = flat fitted curve, though single readings scatter. Some of the results follow.

Data on 47 compounds can be found in PubChem BioAssay AID1508642 (National Center for Advancing Translational Sciences (NCATS), 2021).
% is set by controls: 0 for no effect and ±100 for the full control effect.

This test can be described thus: Cell viability qHTS assay in S16 Pmp22-F2sN cells. Note: nearly all actives have a fitted effect of over 65% in size. The note with it: S16 Pmp22-F2sN Schwann cells (luciferase reporters placed in the Pmp22 gene) viability, CellTiter-Glo, 24 h; series mostly up to 57.5 µM; activity change, negative = cytotoxicity: at the top concentration. A digest of the protocol:
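CellTiter-Glo counter-screen, qHTS, 1536-well. Cells: S16(c9) Pmp22-F2sN, 500-1,000/well in DMEM + 10% FBS. Cpd 23 nL pin transfer, 24 h, 37C/5% CO2. Read: luminescence, CCD imager.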
With `CCN1C(=O)c2ccccc2S(=O)(=O)c2ccc(C(=O)NCc3ccc(F)cc3)cc21`, the “activity change, negative = cytotoxicity” value is inactive: 9.51%.
In the case of `Cc1ccc(CNC(=O)CN2C(=O)COc3ccc(S(=O)(=O)N4CCC(C)CC4)cc32)cc1`, the “activity change, negative = cytotoxicity” value is inactive: 0.921%.
In the case of `COc1ccc(NC(=O)c2ccc3[nH]c(C)cc(=O)c3c2)cc1`, the “activity change, negative = cytotoxicity” value was inactive: 6.39%.
In the case of `Cc1ccc(NC(=O)Cc2coc3c(C)c(C)ccc23)c(C)c1`, the “activity change, negative = cytotoxicity” value is inactive: 7.23%.
With `Cc1ccc(-n2cc(C(=O)OCc3ccc(Cl)cc3)c3ccccc3c2=O)cc1`, the “activity change, negative = cytotoxicity” value was inactive: 1.1%.
Take `Cc1c(Cl)cccc1NC(=O)C(=O)NCCc1csc(-c2cccc(F)c2)n1`: the “activity change, negative = cytotoxicity” value was inactive: 10.7%.
With `CC(NC(=O)c1ccc(N2Cc3ccccc3Oc3ncccc32)s1)c1ccccc1` (configuration not stated), the “activity change, negative = cytotoxicity” value is inactive: -20.8%.
With `Cc1ccc(/C=C/c2onc(C)c2S(=O)(=O)N2CCC(C(=O)NCc3ccc(Cl)cc3)CC2)cc1`, the “activity change, negative = cytotoxicity” value was inactive: 1.91%.
Consider `O=C(NCCc1ccc(Cl)cc1)c1ccc2c(c1)N(Cc1ccc(F)cc1Cl)C(=O)CS2`, for which the “activity change, negative = cytotoxicity” value was inactive: 13.2%.
On to `CCOC(=O)C(C)NC(=O)c1cc2c(=O)[nH]c3ccc(C)cc3c2s1` (configuration not stated), for which the “activity change, negative = cytotoxicity” value was inactive: 11.2%.
In the case of `COc1ccc(-c2nc(CSc3nc4ncccc4[nH]3)c(C)o2)cc1OC`, the “activity change, negative = cytotoxicity” value was inactive: -26.7%.
Consider `CC(NC(=O)Cc1ccc(NC(=O)N2CCCCc3ccccc32)cc1)c1ccccc1` (configuration not stated), for which the “activity change, negative = cytotoxicity” value is inactive: 26%.
In the case of `COc1ccc(NC(=O)c2ccc(-c3cccc(Cl)c3C)o2)cc1`, the “activity change, negative = cytotoxicity” value was inactive: 2.79%.
For the compound `COc1ccc(-c2[nH]c(-c3ccccc3)nc2SCC(=O)Nc2ccc3c(c2)OCO3)cc1`, the “activity change, negative = cytotoxicity” value is inactive: -25.2%.
`CCn1c(CN2CCCCC2)nc2cc(NC(=O)COc3ccc([N+](=O)[O-])cc3)ccc21`: the “activity change, negative = cytotoxicity” value was inactive: -4.59%.
As to `Cc1cc(=O)n(C(C)C(=O)NCc2ccccc2Cl)c2c1c(C)nn2-c1ccccc1` (configuration not stated), the “activity change, negative = cytotoxicity” value was inactive: -12.7%.
With `O=C(Nc1ccc(F)cc1)c1cccc(N2CCCS2(=O)=O)c1`, the “activity change, negative = cytotoxicity” value was inactive: 2.36%.
Turning to `Cc1c2cnn(CC(=O)N3CCCCC3)c(=O)c2c(C)n1Cc1ccc(Cl)cc1`, the “activity change, negative = cytotoxicity” value was inactive: -8.05%.
`CCc1ccc(C2N3CC4(C)CN2CC(c2ccccc2)(C3)C4=O)cc1` (configuration not stated): the “activity change, negative = cytotoxicity” value is inactive: 4.5%.
On to `Cc1ccc(NC(=O)c2ccc3c(=O)n4nc(Nc5ccccc5C)sc4nc3c2)cc1C`, for which the “activity change, negative = cytotoxicity” value is inactive: 10.6%.
On to `CCn1cc(C(=O)NCc2ccccc2)c(=O)c2cc(S(=O)(=O)N3CCOCC3)ccc21`, for which the “activity change, negative = cytotoxicity” value is inactive: 1.63%.
For the compound `COC(=O)C1=C(C)NC(=O)NC1c1cn(-c2ccccc2)nc1-c1ccc(OC)c(Cl)c1` (configuration not stated), the “activity change, negative = cytotoxicity” value was inactive: -27.4%.
For `Cc1ccc(C(C)C)c(OCC(=O)Nc2c(C(=O)c3ccc(F)cc3)oc3ccccc23)c1`, the “activity change, negative = cytotoxicity” value is inactive: 10.2%.
Regarding `Cc1cc(O)c(C(c2ccccc2Cl)N2CCCCC2)c(=O)n1Cc1ccco1` (configuration not stated), the “activity change, negative = cytotoxicity” value is inactive: -5.9%.
For `COc1ccc(N(C(=O)c2ccccc2C)S(=O)(=O)c2ccc3c(c2)n(C)c(=O)n3C)cc1`, the “activity change, negative = cytotoxicity” value was inactive: 7.04%.
Turning to `CCOc1ccccc1NS(=O)(=O)c1c(C(=O)OC)sc2cccc(F)c12`, the “activity change, negative = cytotoxicity” value was inactive: 7.1%.
The same measure for `COc1ccc(OC)c(CCNC(=O)c2sc3nc4n(c(=O)c3c2C)CCCC4)c1`: inactive: 2.48%; for `CCNc1c(NC(=O)c2ccccc2OCC)c(=O)oc2ccccc12`: inactive: 5.24%; for `CSCCC(NC(=O)C1CCCCC1)C(=O)Nc1ccc(F)c(Cl)c1` (configuration not stated): inactive: -2.1%.
Consider `CCN(c1ncnc2c1c(-c1ccccc1)cn2-c1ccccc1)C1CCCCC1`, for which the “activity change, negative = cytotoxicity” value is inactive: 8.59%.
With `Cc1ccc(OCC(=O)OCc2cc(=O)n3nc(C4CCCCC4)sc3n2)cc1`, the “activity change, negative = cytotoxicity” value is inactive: -11.9%.
Turning to `Cc1ccc(S(=O)(=O)N2CCCc3cc(NC(=O)c4ccc(C(F)(F)F)cc4)ccc32)cc1`, the “activity change, negative = cytotoxicity” value was inactive: -25.5%.
Consider `COc1cccc(-c2nc(SC(C(C)=O)C(=O)N(C)C)c3c(=O)n(C)c(=O)n(C)c3n2)c1` (configuration not stated), for which the “activity change, negative = cytotoxicity” value is inactive: -7.38%.
Consider `CCOC(=O)C1=C(CNCc2ccccc2)NC(=O)NC1c1ccc(C)cc1` (configuration not stated), for which the “activity change, negative = cytotoxicity” value is inactive: -10.1%.
The value for `Cc1ccc(N2C(=O)[C@@H]3CSC(c4ccc(C(F)(F)F)cc4)N3C2=O)cc1` (some centres not stated) was inactive: 2.57%.
On to `Cc1ccc(-c2cc(-c3coc4ccccc4c3=O)c3c(n2)-c2cc(Cl)ccc2OC3)cc1`, for which the “activity change, negative = cytotoxicity” value was inactive: 12%.
Consider `COc1ccccc1NC(=O)Cn1c(SCC(=O)NCc2ccccc2)nc2ccccc21`, for which the “activity change, negative = cytotoxicity” value was inactive: -4.73%.
As to `CC(=O)Nc1ccc(-c2nnc3n(CC(C)C)c(=O)c4ccccc4n23)cc1`, the “activity change, negative = cytotoxicity” value was inactive: -15.6%.
In the case of `COc1cc(-c2nnc(SCC(=O)N(C)C3CCCCC3)o2)cc(OC)c1OC`, the “activity change, negative = cytotoxicity” value is inactive: -9.66%.
For the compound `COc1ccc(NC(=O)CCCN2C(=O)C(c3ccccc3)Oc3cccnc32)cc1OC` (configuration not stated), the “activity change, negative = cytotoxicity” value is inactive: 5.28%.
As for `Cc1ccc(CCNC(=O)CCCn2nc(C)c3c(C)n(-c4ccc(C)cc4)nc3c2=O)cc1`, the “activity change, negative = cytotoxicity” value is inactive: 0.539%.
In the case of `COc1ccc(CCC(=O)NCCc2csc(-c3cccc(F)c3)n2)cc1`, the “activity change, negative = cytotoxicity” value is inactive: 9.14%.
The value for `COc1ccc(NC(=O)c2oc3ccc4c(c3c2C)C(=O)CC(C)(C)O4)cc1OC` was inactive: 5.78%; that for `COc1cc2c(cc1NC(=O)C(C)Oc1ccc(Cl)cc1Cl)oc1ccccc12` (configuration not stated) was inactive: 4.88%; that for `CCc1ccc(OCC2c3cc(OC)c(OC)cc3CCN2C(=O)Cc2ccc(OC)c(OC)c2)cc1` (configuration not stated) was inactive: -25.7%.
Regarding `CCOC(=O)C1=C(CS(=O)(=O)c2ccc(F)c(C)c2)NC(=O)NC1c1ccc(F)c(F)c1` (configuration not stated), the “activity change, negative = cytotoxicity” value is inactive: -0.878%.
As for `CC(=O)N1CCc2c(sc(NC(=O)CSc3ccc(C)cc3)c2-c2nc3ccccc3s2)C1`, the “activity change, negative = cytotoxicity” value was inactive: -0.922%.
